Results: PubChem BioAssay AID1508623 (National Center for Advancing Translational Sciences (NCATS), 2021)
Out of some 48,000 compounds screened, about 450 (0.94%) were called active. About 19% were inconclusive and are not listed. Calls follow the shape of the dose curve; as a rule, active = well fitted inhibition curve with a large enough effect; inconclusive = small, poorly fitted or top-dose-only effect; inactive = no such curve, though single readings can be large or run the other way. The list shows a part of the results.

Test: Primary qHTS for Identification of Small Molecule Inhibitors of Huntingtin Promoter Activity; also: nearly all actives have a fitted effect of over 50% in size
Conditions: HEK293 HTT promoter firefly luciferase reporter (activity 0% = vehicle and -100% = no light), 24 h; series mostly up to 57.5 µM; activity change, negative = inhibition: at the top concentration
Procedure, shortened: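 HEK293 cells carrying firefly luciferase reporters were seeded at 2,500 per well in Opti-MEM and cultured for 24 h. They were then treated with compounds at up to 57.5 uM final for 24 h at 37 degrees C before Dual-Glo luminescence readout.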
Potency is read from the fitted curve at half-maximal effect.

Compound	activity change, negative = inhibition	Potency
O=C(Cn1c(=O)n(CCc2ccccc2)c(=O)c2c3c(sc21)CCCC3)Nc1ccc(F)c(F)c1	inactive: 2.59%	
CCCc1nnc(NC(=O)Cc2coc3ccc(C)cc23)s1	inactive: -0.392%	
Cc1ccccc1NC(=O)CSc1nc2ccccc2c2nc(CCn3c(C)nc4ccccc43)nn12	inactive: 0%	
Cc1ccc(CNC(=O)c2cn(C)c3ccc(S(=O)(=O)N4CCOCC4)cc3c2=O)cc1	inactive: -4.36%	
COc1ccccc1N1CCN(C(=O)c2cc3c(=O)oc4ccc(C)cc4c3s2)CC1	inactive: -18.4%	
CCOc1ccc(-c2nc(CNC(=O)Nc3ccccc3)c(C)o2)cc1	inactive: -12.6%	
COc1cc(NC(=O)c2nn(-c3ccc(F)cc3)c(=O)n(C)c2=O)cc(OC)c1OC	inactive: -6.95%	
CCn1c(C(=O)N2CCC(C(=O)NCCCOC)CC2)cc2sccc21	inactive: 9.22%	
O=C(COCc1cc(-c2cccs2)on1)NCc1cccc(Cl)c1	inactive: -11.6%	
CC(C(O)c1ccc(O)cc1)N1CCC(Cc2ccccc2)CC1 (configuration not stated)	inactive: 3.04%	
Cc1ccccc1NC(=O)c1c(NC(=O)C(F)(F)F)sc2c1CCCCC2		active: 2 µM
Cc1cn(S(=O)(=O)c2ccc(F)c(Cl)c2)cn1	inactive: 1.6%	
O=C(CCSCc1ccccc1Cl)N1CCN(c2ccc(F)cc2)CC1	inactive: -20.7%	
CC(Oc1ccccc1)C(=O)N1CCN(Cc2cc(=O)n3nc(-c4ccccc4Cl)sc3n2)CC1 (configuration not stated)	inactive: -26.7%	
CCc1ccc(C(=O)c2cn(CC(=O)Nc3ccc4c(c3)OCCO4)c3ccc(C)cc3c2=O)cc1	inactive: -11.4%	
CC(=O)c1ccc(NC(=O)COc2ccccc2-c2nc(-c3ccccc3)no2)cc1	inactive: -11%	
COCc1cc(C)nc2sc3c(c12)NC(c1ccccc1C(=O)O)N(c1ccc(OC)cc1)C3=O (configuration not stated)	inactive: 17.4%	
O=c1c2c3c(sc2n(Cc2cc(=O)n4ccccc4n2)c(=O)n1-c1ccccc1)CCC3	inactive: 11.1%	
Cc1ccc(C)c(NC(=O)c2nnn(CC(=O)Nc3cccc(C)c3C)c2N)c1	inactive: -11.3%	
O=c1cc(CN2CCN(S(=O)(=O)c3ccccc3)CC2)nc2sc(-c3ccccc3Cl)nn12	inactive: -7.39%	
Cc1ccc(NC(=O)C(Cc2ccccc2)NS(=O)(=O)c2cccs2)cc1Cl (configuration not stated)	inactive: -0.353%	
O=C(CS(=O)(=O)c1nc(-c2ccc(Cl)cc2)cn1-c1ccccc1)Nc1ccc(F)cc1F	inactive: -4.86%	
COc1ccccc1CNC(=O)CN1C(=O)c2cccnc2Oc2ccccc21	inactive: 2.16%	
Cc1ccc(-c2noc(CSc3nnc(C)n3-c3ccc(C)cc3)n2)cc1	inactive: -27.7%	

Compound	activity change, negative = inhibition	Potency
COc1ccc(OCCSc2nc3ccccc3n2CC(=O)N2CCOCC2)cc1	inactive: -15.3%	
COc1ccc(NC(=O)CCCc2nnc3n(CCC(C)C)c(=O)c4sccc4n23)cc1Cl	inactive: -28.3%	
CCOc1ccc(CNC(=O)C2CCN(C(=O)c3sccc3-n3cccc3)CC2)cc1	inactive: -24.9%	
Cc1ccc(-n2c(SCCC(C)C)nc3sc4c(c3c2=O)CC(C)(C)OC4)cc1	inactive: -14.1%	
COc1ccc(-c2cc(C(C)=O)c(C)n2CCC(=O)NC2CCCCC2)cc1	inactive: -13.3%	
CCOc1ccc(CNC(=O)CN2C(=O)C3CCCCN3c3ccc(C(=O)N4CCCC4)cc32)cc1 (configuration not stated)	inactive: 0.571%	
CC(C)Oc1ccc(C(=O)N2CC(=O)Nc3ccc(F)cc3C2c2ccc(F)cc2)cc1 (configuration not stated)	inactive: -26.6%	
COCCNc1ncnc2onc(-c3ccc(F)cc3)c12	inactive: -6.17%	
O=C(O)CCc1ccc(-c2cccs2)n1CC(=O)Nc1ccccc1C(F)(F)F	inactive: -13.4%	
O=C(CSc1nc(-c2ccccc2)nc2c1CCCC2)c1ccc(Cl)cc1	inactive: -6.36%	
CN1CCN2c3ncccc3Cc3ccccc3C2C1 (configuration not stated)	inactive: -6.97%	
CCc1cccc(C)c1NC(=O)C(CC)n1ncn2c(cc3cc(C)ccc32)c1=O (configuration not stated)	inactive: -13%	
CCOc1ccc(CNC(=O)c2cnc3sc(N4CCCCCC4)nn3c2=O)cc1OC	inactive: 11.9%	
Cc1ccc(S(=O)(=O)c2nc(S(=O)(=O)c3ccc(C)cc3)c(NC(C)C)s2)cc1	inactive: -15.6%	
Cc1ccc(C)c(NC(=O)Cn2c(=O)n(Cc3ccc4c(c3)OCO4)c(=O)c3ccc(C(=O)NC4CCCCC4)cc32)c1	inactive: 2.86%	
Cc1ccc2c(c1)CC(C)N2S(=O)(=O)c1nnc(NC(=O)C(C)C)s1 (configuration not stated)	inactive: -17.6%	
Cc1cccc(NC(=O)C2CCN(S(=O)(=O)c3ccc4c(c3)CCCC(=O)N4)CC2)c1	inactive: -18.4%	
CCCNC(=O)C1CCC(Cn2c(=O)c3sccc3n(CC(=O)Nc3ccccc3C)c2=O)CC1 (configuration not stated)	inactive: -3.73%	
COc1ccc(-c2cc(C(F)(F)F)nc(SCCC(=O)Nc3cccc(O)c3)n2)cc1	inactive: 4.14%	
Cc1cc(=O)n(CC(=O)Nc2cccc([N+](=O)[O-])c2)c(-n2nc(C)cc2C)n1	inactive: -21.9%	
CC(NC(=O)c1ccc2nc(Cc3ccccc3)oc2c1)c1ccccc1 (configuration not stated)	inactive: -19.5%	
COC(=O)c1c(NC(=O)c2cc3nc(-c4ccc(Br)cc4)cc(C(F)(F)F)n3n2)sc2c1CCCC2	inactive: -7.08%	
COc1ccc(OC)c(NC(=O)N2CCC(N3CCN(Cc4ccc(F)cc4)C(=O)C3=O)CC2)c1	inactive: -21.4%	
